Screen size: about 310,000 compounds; about 14,000 (4.5%) showed an effect of 50% or more. Effects have a minus sign here. The list shows a part of the results.
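Note: peak tail current of the secondary pulse compared with the same well before compound.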

The target of the experiment is human ether-à-go-go-related gene (hERG) potassium channel (human, UniProt Q12809). The experiment can be described thus: primary screen, population patch clamp on CHO cells stably expressing hERG.
human ether-à-go-go-related gene (hERG) potassium channel, sequence (Q12809 whole entry, looked up): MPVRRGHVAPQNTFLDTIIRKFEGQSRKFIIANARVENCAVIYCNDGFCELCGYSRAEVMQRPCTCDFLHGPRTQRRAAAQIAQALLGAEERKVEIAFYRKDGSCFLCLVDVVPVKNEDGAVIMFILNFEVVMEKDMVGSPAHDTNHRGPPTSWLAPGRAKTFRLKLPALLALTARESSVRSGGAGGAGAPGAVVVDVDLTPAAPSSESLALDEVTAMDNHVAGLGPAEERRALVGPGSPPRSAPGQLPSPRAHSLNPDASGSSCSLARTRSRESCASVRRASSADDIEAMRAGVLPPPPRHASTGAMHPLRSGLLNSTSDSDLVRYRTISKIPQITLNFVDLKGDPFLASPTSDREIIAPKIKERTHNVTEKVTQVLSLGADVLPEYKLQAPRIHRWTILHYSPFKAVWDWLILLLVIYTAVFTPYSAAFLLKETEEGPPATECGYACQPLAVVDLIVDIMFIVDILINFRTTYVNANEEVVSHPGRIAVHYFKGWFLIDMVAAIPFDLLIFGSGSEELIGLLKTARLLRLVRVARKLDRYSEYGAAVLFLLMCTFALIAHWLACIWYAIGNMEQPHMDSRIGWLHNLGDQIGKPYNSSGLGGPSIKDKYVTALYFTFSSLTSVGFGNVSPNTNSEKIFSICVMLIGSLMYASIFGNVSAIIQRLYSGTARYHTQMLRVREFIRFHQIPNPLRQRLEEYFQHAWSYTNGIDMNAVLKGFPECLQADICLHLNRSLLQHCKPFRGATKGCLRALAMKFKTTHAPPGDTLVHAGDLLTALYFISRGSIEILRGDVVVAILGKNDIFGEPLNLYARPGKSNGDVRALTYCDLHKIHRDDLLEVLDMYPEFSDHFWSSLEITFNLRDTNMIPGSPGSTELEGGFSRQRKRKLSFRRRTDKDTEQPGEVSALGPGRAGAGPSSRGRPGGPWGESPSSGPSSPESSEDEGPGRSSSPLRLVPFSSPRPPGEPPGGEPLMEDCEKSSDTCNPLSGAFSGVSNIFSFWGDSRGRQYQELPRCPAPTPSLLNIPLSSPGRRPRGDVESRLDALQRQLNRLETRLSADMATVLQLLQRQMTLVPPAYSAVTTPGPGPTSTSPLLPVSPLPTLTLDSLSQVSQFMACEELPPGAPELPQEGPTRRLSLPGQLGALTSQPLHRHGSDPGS
As to `Cn1c(N)c(C(=O)COC(=O)CCCc2nc3ccccc3s2)c(=O)n(C)c1=O`, the “hERG current change (%, negative = inhibition) at 10uM” value came out at 9.03%.
The figure for `COc1cccc(NC(=O)NCCCCc2ccccc2)c1` is 4.28%.
Take `CC1(C)Cc2nc(-c3ccccc3)nc(SCC(=O)N3CCOCC3)c2CO1`: the “hERG current change (%, negative = inhibition) at 10uM” value is given as -2.27%.
Turning to `O=[N+]([O-])c1ccccc1CN1CCN(Cc2ccc3ccccc3c2)CC1`, the “hERG current change (%, negative = inhibition) at 10uM” value is listed as -38%.
Take `CC1CCN(CCCNC(=O)c2ccc(CSCc3cccc(Cl)c3)o2)CC1`: the “hERG current change (%, negative = inhibition) at 10uM” value is given as -74.8%.
With `C/C(=N/NC(=O)c1ccc(C)s1)c1cccnc1`, the “hERG current change (%, negative = inhibition) at 10uM” value was 7.6%.
`CN(Cc1ccc(OC(F)F)cc1)C(=O)c1ccc(S(=O)(=O)N(C)c2ccccc2)cc1`: the “hERG current change (%, negative = inhibition) at 10uM” value is given as -46.8%.
With `COCCCNC(=O)/C(C#N)=C/c1c(N2CCN(c3ccc(OC)cc3)CC2)nc2c(C)cccn2c1=O`, the “hERG current change (%, negative = inhibition) at 10uM” value was determined as 0.982%.
With `Cc1ccc(-c2nn(C)c(=O)c3ccccc23)cc1S(=O)(=O)N1CCCC1`, the “hERG current change (%, negative = inhibition) at 10uM” value is on record as -40.6%.
Turning to `CCNC(=O)Cc1c(OC)ccc2cc(Br)ccc12`, the “hERG current change (%, negative = inhibition) at 10uM” value was determined as 2.16%.
As to `CCC(C)N1C(=O)CCC1C(=O)NCc1ccc2c(c1)OCO2` (centres unmarked), the “hERG current change (%, negative = inhibition) at 10uM” value amounted to 4.3%.
Consider `COCCC(=O)N1CCCC(CCC(=O)NCc2ccc(F)c(F)c2)C1` (centres unmarked), for which the “hERG current change (%, negative = inhibition) at 10uM” value is given as 22.8%.
Consider `COc1ccccc1C(=O)Nc1ccnn1C1CCN(Cc2cn(C)c3ccccc23)CC1`, for which the “hERG current change (%, negative = inhibition) at 10uM” value is reported as -83.6%.
As for `Cc1ccc(-n2nc(C)c3c2OC(N)=C(C#N)C3c2ccoc2)cc1` (centres unmarked), the figure is 3.53%.
As for `CCOC(=O)C1=C(CCc2ccccc2)NC(=O)NC1c1ccc(Br)cc1` (centres unmarked), the figure is 12.7%.
The figure for `CCOC(=O)c1cc(-c2ccccc2)sc1NC(=O)C(C)OC(=O)c1cccnc1OCC` (centres unmarked) is -9.65%; for `COc1cc(/C=N/N2CCCCC2)cc(OC)c1O.O=P(O)(O)O` it is 18%.
As for `CCCCN(CCCC)CCn1cnc2c([nH]c3ccc(OC)cc32)c1=O`, the “hERG current change (%, negative = inhibition) at 10uM” value is on record as -36.6%.
For `CN(CC#CC1(O)c2ccccc2-c2ccccc21)Cc1ccccc1`, the “hERG current change (%, negative = inhibition) at 10uM” value is 3.5%.
For `COc1ccc(OC)c(S(=O)(=O)n2cccn2)c1`, the “hERG current change (%, negative = inhibition) at 10uM” value was 17.1%.
As to `CSCC[C@H](NC(=O)OC(C)(C)C)c1nnc(SCC(=O)Nc2ccc(C)cc2C)o1`, the “hERG current change (%, negative = inhibition) at 10uM” value is listed as -50.1%.
Regarding `COc1cc(/C=N/NC(=O)c2cccc([N+](=O)[O-])c2)ccc1OC(=O)c1ccco1`, the “hERG current change (%, negative = inhibition) at 10uM” value turned out to be 2.97%.
As for `Brc1ccccc1OCCN1CCOCC1.O=C(O)C(=O)O`, the figure is 11%.
As for `Cc1nc(CNS(=O)(=O)c2cccnc2)cs1`, the “hERG current change (%, negative = inhibition) at 10uM” value was -9.3%.
As to `CCOc1ccc(NC(=O)C(=O)N/N=C/c2ccccc2F)cc1`, the “hERG current change (%, negative = inhibition) at 10uM” value was 22.7%.
Turning to `O=C(Nc1ccon1)C1CCN(S(=O)(=O)c2cccs2)CC1`, the “hERG current change (%, negative = inhibition) at 10uM” value is -8.73%.
As to `CC(=O)c1c(C)[nH]c(C(=O)CSc2nnc(-c3ccco3)o2)c1C`, the “hERG current change (%, negative = inhibition) at 10uM” value was -4.61%.
For `COc1ccc(S(=O)(=O)N2CCOCC2)cc1C(=O)N(C)Cc1ccccc1F`, the “hERG current change (%, negative = inhibition) at 10uM” value is recorded as -37.8%.
Take `COc1ccc(CN(C)Cc2nc(Cc3ccccc3Cl)no2)cc1OC`: the “hERG current change (%, negative = inhibition) at 10uM” value is reported as -10.9%.
On to `CCN(c1cccc(C)c1)S(=O)(=O)c1ccc2c(c1)oc(=O)n2C`, for which the “hERG current change (%, negative = inhibition) at 10uM” value amounted to 9.9%.
`CCCn1c(O)c2ccc(C(=O)N=NC(=O)c3cccnc3)cc2c1O`: the “hERG current change (%, negative = inhibition) at 10uM” value is recorded as 0.483%.
As for `O=C(c1cccc(Br)c1)N1CCN(C(=O)N2CCCCC2)CC1`, the “hERG current change (%, negative = inhibition) at 10uM” value is reported as -1.2%.
For the molecule `COc1ccc(NC(=S)Nc2ccccn2)cc1`, the “hERG current change (%, negative = inhibition) at 10uM” value turned out to be 13.5%.
`O=C(NCC(=O)N1CCN(c2ccc(C(F)(F)F)cn2)CC1)c1ccc(Br)o1`: the “hERG current change (%, negative = inhibition) at 10uM” value was -71.8%.
In the case of `O=C(Nc1cc(Cl)ccc1N1CCOCC1)c1ccc2c(c1)OCCO2`, the “hERG current change (%, negative = inhibition) at 10uM” value is on record as 30.3%.
For the molecule `CCOC(=O)N1CCC(NC(=O)CCN2C(=O)COc3ccccc32)CC1`, the “hERG current change (%, negative = inhibition) at 10uM” value came to 8.33%.
As for `CC1=NN(c2ccccc2)C(=O)/C1=C\c1cc(C)n(-c2ccccc2)c1C`, the figure is 11.4%.
As for `COc1cccc(NC(=O)CCC2CCN(C(=O)c3c(C)noc3C)CC2)c1`, the figure is 9.04%; as for `CC1=NN(c2nc(-c3ccccc3)cs2)C(=O)C1`, 15.9%.
As to `CC1CCCN(C(=O)NC2CC(=O)N(c3ccc4c(c3)OCCO4)C2)C1` (centres unmarked), the “hERG current change (%, negative = inhibition) at 10uM” value was found to be 3.96%.
For `CCc1ccccc1NS(=O)(=O)c1c(C(=O)N2CCCCCC2)c(C)n(C)c1C`, the “hERG current change (%, negative = inhibition) at 10uM” value is reported as -25.3%.
On to `O=C(CSc1nnc(-c2ccc(F)cc2)c2ccccc12)Nc1c(F)cccc1F`, for which the “hERG current change (%, negative = inhibition) at 10uM” value was -31.7%.
As to `COc1cc(NC(=O)c2ccc(F)cc2)c(OC)cc1NC(=O)CN1CCCCC1.Cl`, the “hERG current change (%, negative = inhibition) at 10uM” value is -23.1%.
For the molecule `COc1ccc(OC)c(-c2nc(C(=O)NC3CCN(Cc4ccccc4)CC3)cc3c2[nH]c2ccccc23)c1`, the “hERG current change (%, negative = inhibition) at 10uM” value is on record as -43.5%.
For `O=C(Nc1nc(-c2ccccc2)c(-c2ccccc2)o1)c1ccc(F)cc1`, the “hERG current change (%, negative = inhibition) at 10uM” value is on record as -15%.
The figure for `NC(=O)CSc1nccn1Cc1ccc2c(c1)OCO2` is 19.2%.
`Cc1ccc(C)c(NC(=O)C(Sc2nc3ccccc3c(=O)n2CC(C)C)c2ccccc2)c1` (centres unmarked): the “hERG current change (%, negative = inhibition) at 10uM” value is given as -11.5%.
With `CC1CCCCC1n1c(-c2cccnc2)n[nH]c1=S` (centres unmarked), the “hERG current change (%, negative = inhibition) at 10uM” value turned out to be 40.2%.
As to `Cc1ccc2c(C(=O)CNc3nncs3)c(C)[nH]c2c1`, the “hERG current change (%, negative = inhibition) at 10uM” value is 21.1%.
With `Cc1ccc(C(=O)NCCC(=O)NCc2ccco2)cc1`, the “hERG current change (%, negative = inhibition) at 10uM” value came to 9.59%.
Turning to `O=C(Nc1cccn(Cc2c(Cl)cccc2Cl)c1=O)c1c(Cl)cccc1Cl`, the “hERG current change (%, negative = inhibition) at 10uM” value is 2.73%.
For the molecule `COc1ccc(N(C(C)=O)c2nc(C)cc(C)c2C#N)c(OC)c1`, the “hERG current change (%, negative = inhibition) at 10uM” value is 11.3%.
On to `Cc1ccccc1C(=O)Nc1ccccc1NC(=O)c1ccccc1C`, for which the “hERG current change (%, negative = inhibition) at 10uM” value is given as 14.8%.
As for `CCCCC1OC2(C)OC(=N)C1(C#N)C(C#N)(C#N)C2c1ccccc1` (centres unmarked), the figure is -6.51%; as for `CC1SC2(CN3CCC2CC3)NC1=O` (centres unmarked), 18%; as for `COc1cc(NC(=O)c2cccs2)c(C(=O)OCC(=O)NCc2ccccc2)cc1OC`, 11.5%.

These data come from paper PMC4336329 (PLoS ONE, 2015).
